Results published in a collection of fitness landscapes (doi:10.1126/science.1257360).
The other results are listed elsewhere or left out.

B1: PhoQ; a variant is named by its letters at X, in order, P23837 (parent)
chain: MKKLLRLFFPLSLRVRFLLATAAVVLVLSLAYGMVALIGYSVSFDKTTFRLLRGESNLFYTLAKWENNKLHVELPENIDKQSPTMTLIYDENGQLLWAQRDVPWLMKMIQPDWLKSNGFHEIEADVNDTSLLLSGDHSIQQQLQEVREDDDDAEMTHSVAVNVYPATSRMPKLTIVVVDTIPVELKSSYMVWSWFIYVLSANLLLVIPLLWVAAWWSLRPIEALAKEVRELEEHNRELLNPATTRELTSLVRNLNRLLKSERERYDKYRTTLTDLTHSLKTPLXXLQXXLRSLRSEKMSVSDAEPVMLEQISRISQQIGYYLHRASMRGGTLLSRELHPVAPLLDNLTSALNKVYQRKGVNISLDISPEISFVGEQNDFVEVMGNVLDNACKYCLEFVEISARQTDEHLYIVVEDDGPGIPLSKREVIFDRGQRVDTLRPGQGVGLAVAREITEQYEGKIVAGESMLGGARMEVIFGRQHSAPKDE

Variants of: B1
Experiment: enrichment ratio after two sorts for PhoP signalling (ratio (wild type AVST 3.29)); higher = more functional
Details: with PhoP (E. coli)

| Variant | enrichment ratio |
| --- | --- |
| KGPW | ≤ 0.25 |
| FGSE | ≤ 0.25 |
| NEQV | ≤ 0.25 |
| QRYH | ≤ 0.25 |
| TMSM | 7.07 |
| IAED | ≤ 0.25 |
| STIA | 6.94 |
| FCCE | ≤ 0.25 |
| KTKH | ≤ 0.25 |
| TITH | 1.26 |
| MSSG | 0.257 |
| FCPY | ≤ 0.25 |
| NMQY | ≤ 0.25 |
| KTNW | ≤ 0.25 |
| SATQ | 10.3 |
| YTWV | ≤ 0.25 |
| KLQN | ≤ 0.25 |
| HHCM | ≤ 0.25 |
| FAIS | ≤ 0.25 |
| RCRC | ≤ 0.25 |
| DHSK | ≤ 0.25 |
| GWRF | ≤ 0.25 |
| VPLT | ≤ 0.25 |
| NREP | ≤ 0.25 |

| Variant | enrichment ratio |
| --- | --- |
| VWLM | ≤ 0.25 |
| FTNS | ≤ 0.25 |
| YFTQ | ≤ 0.25 |
| KRAK | ≤ 0.25 |
| ILTC | 2.74 |
| SEGC | 5.53 |
| PAPA | ≤ 0.25 |
| FHPL | ≤ 0.25 |
| RVNM | ≤ 0.25 |
| SKTD | ≤ 0.25 |
| NLAD | ≤ 0.25 |
| KEQP | ≤ 0.25 |
| NKLE | ≤ 0.25 |
| IVPF | ≤ 0.25 |
| ECDG | ≤ 0.25 |
| KSWP | ≤ 0.25 |
| FGWC | ≤ 0.25 |
| CFDS | ≤ 0.25 |
| RFTW | ≤ 0.25 |
| FPMT | ≤ 0.25 |
| SCRK | ≤ 0.25 |
| FQKF | ≤ 0.25 |
| WSAM | ≤ 0.25 |
| MYVR | ≤ 0.25 |

| Variant | enrichment ratio |
| --- | --- |
| HDTW | ≤ 0.25 |
| NNNF | ≤ 0.25 |
| TPWQ | ≤ 0.25 |
| HWCD | 2.96 |
| GIIT | 0.448 |
| EPDL | ≤ 0.25 |
| HDVV | ≤ 0.25 |
| LLDL | ≤ 0.25 |
| IKFF | ≤ 0.25 |
| QTDF | 4.85 |
| PWSA | ≤ 0.25 |
| VRIM | ≤ 0.25 |
| MTLP | ≤ 0.25 |
| KGCK | ≤ 0.25 |
| MMAD | ≤ 0.25 |
| GNCW | ≤ 0.25 |
| RRSY | ≤ 0.25 |
| DQVS | ≤ 0.25 |
| DSNA | ≤ 0.25 |
| GLLK | ≤ 0.25 |
| QHQP | ≤ 0.25 |
| RSNQ | ≤ 0.25 |
| IIPG | ≤ 0.25 |
| RQSF | ≤ 0.25 |

| Variant | enrichment ratio |
| --- | --- |
| PFLA | ≤ 0.25 |
| SATR | ≤ 0.25 |
| SNKD | ≤ 0.25 |
| SGII | 3.87 |
| DSCR | ≤ 0.25 |
| GFID | ≤ 0.25 |
| QCCG | ≤ 0.25 |
| QRWE | ≤ 0.25 |
| LDCC | ≤ 0.25 |
| KDCE | ≤ 0.25 |
| FSPM | ≤ 0.25 |
| TRTA | ≤ 0.25 |
| IPSL | ≤ 0.25 |
| RQYQ | ≤ 0.25 |
| KMRS | ≤ 0.25 |
| PQAQ | ≤ 0.25 |
| MNSN | ≤ 0.25 |
| RKMW | ≤ 0.25 |
| QSAM | 14.5 |
| AFST | ≤ 0.25 |
| VWVD | ≤ 0.25 |
| MSWW | ≤ 0.25 |
| HLQQ | ≤ 0.25 |
| HRVV | ≤ 0.25 |

| Variant | enrichment ratio |
| --- | --- |
| PEWS | ≤ 0.25 |
| DYDS | ≤ 0.25 |
| LIKS | ≤ 0.25 |
| PPFA | ≤ 0.25 |
| HWEV | ≤ 0.25 |
| IFDR | ≤ 0.25 |
| FKWF | ≤ 0.25 |
| NFFV | ≤ 0.25 |
| AEAS | 21.3 |
| DYEH | ≤ 0.25 |
| YYVH | ≤ 0.25 |
| GMFG | ≤ 0.25 |
| KKSM | ≤ 0.25 |
| SWTM | ≤ 0.25 |
| VEDH | ≤ 0.25 |
| HFIV | ≤ 0.25 |
| MHWD | ≤ 0.25 |
| DYHA | ≤ 0.25 |
| DAPY | ≤ 0.25 |
| GTPF | ≤ 0.25 |
| ATEG | ≤ 0.25 |
| IEGS | ≤ 0.25 |
| GYTA | ≤ 0.25 |
| MTPR | ≤ 0.25 |

| Variant | enrichment ratio |
| --- | --- |
| NVGP | ≤ 0.25 |
| THVN | ≤ 0.25 |
| FNKL | ≤ 0.25 |
| SINQ | 0.587 |
| SPYR | ≤ 0.25 |
| WFFA | ≤ 0.25 |
| WRRA | ≤ 0.25 |
| QSMD | ≤ 0.25 |
| KGCP | ≤ 0.25 |
| EPQD | ≤ 0.25 |
| QMPN | ≤ 0.25 |
| TCVC | ≤ 0.25 |
| SHTY | 0.976 |
| NSRE | ≤ 0.25 |
| FKIC | ≤ 0.25 |
| MGNP | ≤ 0.25 |
| RWAD | ≤ 0.25 |
| IYYS | ≤ 0.25 |
| FYTI | ≤ 0.25 |
| TMHV | 0.946 |
| YRDS | ≤ 0.25 |
| RDIR | ≤ 0.25 |
| MHQE | ≤ 0.25 |
| REFP | ≤ 0.25 |

| Variant | enrichment ratio |
| --- | --- |
| IDIS | ≤ 0.25 |
| EGSP | ≤ 0.25 |
| VWNA | ≤ 0.25 |
| SFDK | ≤ 0.25 |
| NKAQ | ≤ 0.25 |
| PDAW | ≤ 0.25 |
| AVVV | 2.93 |
| YAGK | ≤ 0.25 |
| HEDC | ≤ 0.25 |
| GSHN | ≤ 0.25 |
| NVSN | ≤ 0.25 |
| FLGT | ≤ 0.25 |
| LLPH | ≤ 0.25 |
| FWWW | ≤ 0.25 |
| IVSS | ≤ 0.25 |
| LYEK | ≤ 0.25 |
| GIQS | ≤ 0.25 |
| SCVT | 1.01 |
| RDGQ | ≤ 0.25 |
| PERD | ≤ 0.25 |
| EGWW | ≤ 0.25 |
| DSIP | ≤ 0.25 |
| HQYM | ≤ 0.25 |
| LGPV | ≤ 0.25 |

| Variant | enrichment ratio |
| --- | --- |
| TQWN | 10.1 |
| LEGW | ≤ 0.25 |
| DRSM | ≤ 0.25 |
| QHGD | ≤ 0.25 |
| MEQF | ≤ 0.25 |
| QRTA | ≤ 0.25 |
| DPMH | ≤ 0.25 |
| HAQM | ≤ 0.25 |
| VVMR | ≤ 0.25 |
| DRAV | ≤ 0.25 |
| KQYR | ≤ 0.25 |
| VSFW | ≤ 0.25 |
| FWVV | ≤ 0.25 |
| LSGH | ≤ 0.25 |
| TYKN | ≤ 0.25 |
| VSMA | ≤ 0.25 |
| KNLQ | ≤ 0.25 |
| HDNT | ≤ 0.25 |
| LQCC | ≤ 0.25 |
| TCAM | 8.72 |
| YKCW | 8.39 |
| AMQG | ≤ 0.25 |
| GNWM | ≤ 0.25 |
| SHYC | ≤ 0.25 |

| Variant | enrichment ratio |
| --- | --- |
| TRES | ≤ 0.25 |
| GRFL | ≤ 0.25 |
| IMKS | ≤ 0.25 |
| LMLC | ≤ 0.25 |
| LMQN | ≤ 0.25 |
| KNWF | ≤ 0.25 |
| KNSC | ≤ 0.25 |
| GMMA | ≤ 0.25 |
| QAKT | ≤ 0.25 |
| RSQM | ≤ 0.25 |
| WKLD | ≤ 0.25 |
| SGDH | ≤ 0.25 |
| NQWH | ≤ 0.25 |
| IRQR | ≤ 0.25 |
| LHLC | ≤ 0.25 |
| VGLD | ≤ 0.25 |
| NVWI | ≤ 0.25 |
| EVTT | ≤ 0.25 |
| HRAF | ≤ 0.25 |
| YEPV | ≤ 0.25 |
| MEKT | ≤ 0.25 |
| HRKN | ≤ 0.25 |
| LSRT | ≤ 0.25 |
| IHNK | ≤ 0.25 |

| Variant | enrichment ratio |
| --- | --- |
| LHGE | ≤ 0.25 |
| YYWP | ≤ 0.25 |
| IKKG | ≤ 0.25 |
| ACGK | ≤ 0.25 |
| QMDW | ≤ 0.25 |
| HEFR | ≤ 0.25 |
| HQAS | ≤ 0.25 |
| HSQW | ≤ 0.25 |
| LVHE | ≤ 0.25 |
| VGWM | 2.09 |
| YKFK | ≤ 0.25 |
| KQLS | ≤ 0.25 |
| HYRP | ≤ 0.25 |
| RKEI | ≤ 0.25 |
| TEKG | ≤ 0.25 |
| QSKK | ≤ 0.25 |
| YGCP | ≤ 0.25 |
| MFGL | ≤ 0.25 |
| SLFR | ≤ 0.25 |
| QRVV | ≤ 0.25 |
| GEAA | 11.4 |
| HWEH | ≤ 0.25 |
| ARYF | ≤ 0.25 |
| GAAK | ≤ 0.25 |

| Variant | enrichment ratio |
| --- | --- |
| ALWL | ≤ 0.25 |
| FVDR | ≤ 0.25 |
| TGPM | ≤ 0.25 |
| RCKY | ≤ 0.25 |
| QINW | ≤ 0.25 |
| VESD | ≤ 0.25 |
| QEPT | ≤ 0.25 |
| RYLF | ≤ 0.25 |
| GVRS | ≤ 0.25 |
| QRFA | ≤ 0.25 |
| WSQK | ≤ 0.25 |
| EVIP | ≤ 0.25 |
| FYKR | ≤ 0.25 |
| WYSP | ≤ 0.25 |
| EPMM | ≤ 0.25 |
| FKYI | 1.2 |
| EYAA | ≤ 0.25 |
| GWEV | ≤ 0.25 |
| ANWA | ≤ 0.25 |
| LDLY | ≤ 0.25 |
| KQFY | ≤ 0.25 |
| YCWI | ≤ 0.25 |
| IISI | ≤ 0.25 |
| YAWN | ≤ 0.25 |

| Variant | enrichment ratio |
| --- | --- |
| ASAM | 20.2 |
| GPEL | ≤ 0.25 |
| GMDV | ≤ 0.25 |
| PLIT | ≤ 0.25 |
| LFGN | ≤ 0.25 |
| LYQT | ≤ 0.25 |
| IRHL | ≤ 0.25 |
| VMTV | ≤ 0.25 |
| MMFK | ≤ 0.25 |
| ITHY | ≤ 0.25 |
| TLMC | 4.84 |
| RDCC | ≤ 0.25 |
| FNDA | ≤ 0.25 |
| RLND | ≤ 0.25 |
| GNTH | ≤ 0.25 |
| PHST | ≤ 0.25 |
| QELL | ≤ 0.25 |
| NVGW | ≤ 0.25 |
| HVWM | ≤ 0.25 |
| GEHN | ≤ 0.25 |
| KKNP | ≤ 0.25 |
| IKFT | ≤ 0.25 |
| TDFD | ≤ 0.25 |
| FSRR | ≤ 0.25 |

| Variant | enrichment ratio |
| --- | --- |
| LALI | 4.76 |
| DTKS | ≤ 0.25 |
| GMTW | ≤ 0.25 |
| NLPG | ≤ 0.25 |
| FFGM | ≤ 0.25 |
| DKRM | ≤ 0.25 |
| RWGP | ≤ 0.25 |
| TKCT | 38.2 |
| LDMN | ≤ 0.25 |
| TQSG | 22.2 |
| SPDV | ≤ 0.25 |
| QHMK | ≤ 0.25 |
| FRDN | ≤ 0.25 |
| FMKH | ≤ 0.25 |
| CHRK | ≤ 0.25 |
| TVDM | ≤ 0.25 |
| FYVG | ≤ 0.25 |
| DSYW | 0.671 |
